Assay results as given in paper PMC6919601, “Identification of Plasmodium dipeptidyl aminopeptidase allosteric inhibitors by high throughput screening” (PLoS ONE, 2019).
The whole screen tested about 110,000 compounds, of which about 230 (0.21%) showed an effect of 50% or more. The list shows a part of the results.

Target: DPAP1 (Plasmodium falciparum, UniProt Q8IIJ9)
Experiment: primary screen, percent inhibition; read by cleavage of a fluorogenic dipeptide substrate; higher = more effect of the substance
Design: species or system P. falciparum D10 trophozoite lysates; single well
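Note: 30 min substrate incubation versus DMSO and 10 µM JCP410 controls.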

Sequence of DPAP1 (Q8IIJ9 whole entry, looked up): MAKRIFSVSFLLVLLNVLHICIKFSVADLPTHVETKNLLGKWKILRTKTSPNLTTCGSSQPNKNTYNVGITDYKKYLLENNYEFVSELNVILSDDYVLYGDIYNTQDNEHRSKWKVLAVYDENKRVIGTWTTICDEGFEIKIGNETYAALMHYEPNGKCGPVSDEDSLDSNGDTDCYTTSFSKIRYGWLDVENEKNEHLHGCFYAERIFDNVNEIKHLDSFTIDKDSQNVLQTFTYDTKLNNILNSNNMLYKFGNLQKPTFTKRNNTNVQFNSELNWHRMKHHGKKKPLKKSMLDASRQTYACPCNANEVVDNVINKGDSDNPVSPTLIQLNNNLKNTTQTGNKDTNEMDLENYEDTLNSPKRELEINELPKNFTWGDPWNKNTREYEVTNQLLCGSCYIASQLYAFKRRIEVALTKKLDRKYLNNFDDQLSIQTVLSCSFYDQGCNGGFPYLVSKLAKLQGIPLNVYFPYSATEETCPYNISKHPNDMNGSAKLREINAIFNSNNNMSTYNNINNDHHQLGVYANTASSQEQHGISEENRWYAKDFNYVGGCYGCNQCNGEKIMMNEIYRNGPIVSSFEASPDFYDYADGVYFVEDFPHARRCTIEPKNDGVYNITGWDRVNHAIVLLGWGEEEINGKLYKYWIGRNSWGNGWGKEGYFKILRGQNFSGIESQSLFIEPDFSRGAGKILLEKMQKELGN

Compound | % Inhibition @ 10 uM [%]
CCN1C(=O)N/C(=C\c2c(OC)ccc3ccccc23)C1=O | -0.25
CC(=O)Nc1ccc(CN2CCCCCCC2)cc1 | -5.61
COc1ccc(-c2cn3c(n2)sc2cc(C(=O)NCCc4ccc(OC)c(OC)c4)ccc23)cc1 | -0.0401
CCn1c(C)c(C)c2cc(C(=O)NCc3ccc(C)o3)ccc21 | 7.74
CS(=O)(=O)N(CC(=O)Nc1ccc(Br)cc1F)Cc1ccccc1 | -7.18
O=C(C[n+]1cccc(CO)c1)Nc1nc2ccccc2s1 | -5.07
O=C(/C=C/c1ccccc1)N1CCN(c2ccc(Cl)cc2)CC1 | 4.52
O=C(CCCn1ccc2cc(S(=O)(=O)N3CCCC3)ccc21)NCCN1CCOCC1 | 5.44
COc1ccccc1OCc1nc(C#N)c(NCc2ccc3c(c2)OCO3)o1 | -6.08
COc1ccc2[nH]cc(CCNC(=O)c3ccco3)c2c1 | 4.93
Cc1cc(NC(=O)c2cc(-c3ccc(F)cc3)no2)nn1CC(=O)N1CCOCC1 | 1.92
Cc1ccc(-c2noc(CCC(=O)Nc3nc4ccccc4s3)n2)cc1 | -4.66
CCS(=O)(=O)c1nc(S(=O)(=O)c2ccc(C)cc2)c(NCc2ccccc2)s1 | -0.522
CCN(CC)S(=O)(=O)c1cc(C(=O)O)ccc1F | 1.13
Cc1onc(-c2ccccc2Cl)c1C(=O)Nc1cc(=O)n(C)c(=O)n1C | -1.36
Clc1ccccc1OCc1nn2c(Cn3cnc4ccccc43)nnc2s1 | 4.47
COc1ccc(NC2C=CS(=O)(=O)C2)cc1 (stereo not shown) | -3.92
NC(=O)c1ccccc1NC(=O)/C=C/C(=O)O | -4.08
O=C1OC(c2cncc(Br)c2)=N/C1=C\c1cccc(Cl)c1Cl | 4.29
O=C(Nc1cccnc1)c1cc(-c2ccc(Br)cc2)on1 | -4.79
CCOC(=O)c1c(-c2ccccc2)oc2ccc(OCC(=O)N(CC)CC)cc12 | 1.16
CCCCOc1ccc(/C=C(\C#N)c2nc(-c3ccc(OC)cc3OC)cs2)cc1 | 2.7
CC(C)(C)CC(=O)Nc1ccc(C(N)=O)cc1 | 2.86
CC(=O)c1ccc2c(c1)OCCOCCOCCOCCOCCO2 | -0.968
O=C(NCCCN1CCC(Cc2ccccc2)CC1)c1cc2ccc3cccnc3c2[nH]1 | -1.79

Compound | % Inhibition @ 10 uM [%]
Cc1ccc(OCc2nc(-c3ccc(-n4cccc4)cc3)no2)cc1C | 2.16
COc1ccc(OC)c(/C=C(\C#N)c2nc(-c3ccccc3)cs2)c1 | -3.26
COc1ccc(C(c2cc(Cl)c3cccnc3c2O)N2CCN(C)CC2)cc1 (stereo not shown) | 33.6
COc1cc(S(=O)(=O)Nc2ccncc2)c(OC)cc1Cl | -3.01
O=C(NCCN1CCC(Cc2ccccc2)CC1)C1CC(=O)N(CCc2ccccc2)C1 (stereo not shown) | -1.79
O=S(=O)(Nc1cccc(Cl)c1Cl)c1cc(Cl)ccc1Cl | 2.46
COc1ccc(OCc2nnc3n2N=C(c2ccc(OC)cc2)CS3)cc1 | 3.25
CC12CNCC(C)(CN(Cc3ccc(Br)cc3)C1)C2 | -7.54
CCN(CC)C(=O)/C(=C\c1ccc(F)cc1)NC(=O)c1ccccc1 | -6.03
Cc1ccc(-n2nc3c(=O)n(CC(=O)N4CCN(c5ccccn5)CC4)nc(C)c3c2C)cc1 | 6.42
Cc1ccc(C2C(C(=O)c3ccc(Br)cc3)=C(O)C(=O)N2CCOCCO)cc1 (stereo not shown) | 3.24
CCOc1ccc(-c2ncnn2-c2ccc(Br)cc2F)cc1 | -5.68
O=C(NC1CCCCCCC1)c1cccnc1 | -0.687
Cc1ccc(N2C(=O)CC(NC3CCCC3)C2=O)cc1 (stereo not shown) | 0.673
CCCCN(CC)C(=O)c1noc2c1COc1ccccc1-2 | -1.72
O=C(Nc1ccc(-c2cn3ccsc3n2)cc1)c1cccc(Br)c1 | 1.37
Cc1ccc2nc(NCCN3CCOCC3)c3nnnn3c2c1 | 3
COc1ccccc1C1=NOC(Cn2c(=O)c3c(ncn3C)n(C)c2=O)C1 (stereo not shown) | 0.221
CC1CCCC(NC(=O)C2c3ccccc3C(=O)N2C(C)c2ccccc2)C1C (stereo not shown) | 0.387
COc1cc2c(cc1OC)C(c1ccccc1)NC(=O)C2 (stereo not shown) | 3.16
SC1=Nc2ccccc2SC(c2ccccc2)C1 (stereo not shown) | -3.04
O=C(C1=C(C(F)(F)F)Nc2ncnn2C1c1ccc(Cl)cc1)c1cccs1 (stereo not shown) | -0.403
C=CCN1C(=O)c2n[nH]c(-c3c(C)cc(C)cc3O)c2C1c1ccccc1F (stereo not shown) | 4.83
CCCc1nc(-c2ccccc2O)n(-c2ccccc2)n1 | -0.865
CCCNC(=O)c1cnn(-c2cccc(Cl)c2)c1C1CCN(C(=O)OC(C)(C)C)CC1 | 8.83

Compound | % Inhibition @ 10 uM [%]
O=C(Cc1ccc(F)cc1)Nc1c(C(=O)N2CCN(c3ncccn3)CC2)oc2ccccc12 | -9.02
FC(F)(F)c1ccccc1CN1CCN(c2cccc(Cl)c2)CC1 | -0.969
Cc1cc(C)c(C(=O)c2ccc(C(=O)Nc3ccccc3)cc2)c(C)c1 | -0.771
COC(=O)C1=CN(C(C)c2ccccc2)C=C(C(=O)OC)C1c1ccc(Cl)cc1Cl (stereo not shown) | -3.4
CCOc1ccc2nc(N3CCC(C(=O)NCCc4ccc(S(N)(=O)=O)cc4)CC3)sc2c1 | 0.137
CC(C)(C)c1ccc(C(=O)Nc2ccccc2F)cc1 | -3.26
CCc1ccccc1NC(=O)c1ccc2c(c1)OCO2 | 0.565
O=C(O)c1cc(-c2ccccn2)nc2ccc(Br)cc12 | -4.02
N#Cc1ccccc1NC(=O)COc1ccccc1 | -2.18
O=C1NC(c2cccc(Br)c2)C(C(=O)c2cccs2)C(O)(C(F)(F)F)N1 (stereo not shown) | 8.92
COc1cc(SC)ccc1C(=O)N1CCCC(C)C1 (stereo not shown) | 4.3
C=CCNC(=O)COc1cc(C)c(Cl)c(C)c1 | -2.27
CC1=CC(C)(C)N(C(=O)Nc2ccc(F)cc2)c2ccccc21 | -0.0938
Cc1nn(Cc2ccc(C(=O)Nc3ccc(Cl)cc3)o2)c(C)c1Cl | 1.02
COCCn1c(C)cc(C(=O)C(=O)Nc2nnc(Cc3ccccc3)s2)c1C | 0.655
CCCNS(=O)(=O)c1cc(-c2cc(C)no2)ccc1OC | -8.89
CCC1=NN2C(=N)/C(=C/c3ccccc3OS(=O)(=O)c3ccc(C)cc3)C(=O)N=C2S1 | 15.9
COc1cccc(OCCCN2CCN(S(=O)(=O)c3ccc(C)cc3)CC2)c1 | -2.9
Cc1oc2c(c1C(=O)NC1CCCCC1)C1=NCCN1C=N2 | -6.13
O=[N+]([O-])c1ccccc1S(=O)(=O)NC12CC3CC(CC(C3)C1)C2 | -0.0217
CCC(=O)Nc1ccc(S(=O)(=O)Nc2ccc(F)cc2)cc1 | 1.37
CCOP(=O)(Cc1cc(C(C)(C)C)c(O)c(C(C)(C)C)c1)OCC | -2.72
COc1ccc(-c2cc(C(F)(F)F)n3ncc(C(=O)NCCN4CCOCC4)c3n2)cc1OC | -2.92
CCOC(=O)c1c(C)n(C)c2c1cc(OC)c1ccccc12 | 6.81
COc1ccc(NC(=O)CN(c2ccccc2C)S(C)(=O)=O)cc1 | -3.39

Compound | % Inhibition @ 10 uM [%]
Cc1nc2ccccc2c2oc(C(=O)NCCC(C)C)cc12 | -3.45
CC(C)CS(=O)(=O)C1=NSC2=NC(=O)/C(=C\c3ccc(F)cc3)C(=N)N21 | 1.85
COC(=O)C1=CN(Cc2ccc(Cl)cc2)C=C(C(=O)OC)C1c1cc(OC)c(O)c(OC)c1 | 1.86
N#CC1=C(N)Oc2cc(O)ccc2C1c1cccc(C(F)(F)F)c1 (stereo not shown) | -2
CSc1ccc(CN(C)CC(O)c2ccccc2)cc1 (stereo not shown) | -1.75
CNc1nc(N)c(C(=O)C23CC4CC(CC(C4)C2)C3)s1 | -2.77
CCc1nc2nonc2c2nc3ccccc3n12 | -1.47
CN(C)c1ccc(NC(=O)c2ccco2)cc1 | -1.32
Cn1nc(C(=O)Nc2ccccc2Cl)cc1C(=O)Nc1ccccc1Cl | -3.04
COc1cc(OC)cc(C2C(C#N)=C(N)Oc3[nH]nc(-c4cccs4)c32)c1 (stereo not shown) | -4.6
CCOc1ccc(OCC)c(C2C(C#N)=C(N)Oc3nc(O)nc(O)c32)c1 (stereo not shown) | 8.95
C/N=c1\c(NC(=O)c2sc3ccccc3c2Cl)c(O)oc2ccccc12 | 3.5
COc1ccc(C(=O)N2N=C3CCCCCC3C2(O)C(F)(F)F)cc1 (stereo not shown) | -0.622
Cc1cc(C)c(C#N)c(SCC(=O)c2cccs2)n1 | -3.77
COc1cc2c(cc1OC)CN(C(=O)C1Cc3ccccc3CN1S(=O)(=O)c1cccs1)CC2 (stereo not shown) | -1.11
CCOc1ccc(C(=O)C2=C(O)C(=O)N(Cc3cccnc3)C2c2ccc(F)cc2)c(C)c1 (stereo not shown) | -1.93
CC1=CC2=NC(=O)/C(=C\c3cn(C)c4ccccc34)C(=N)N2O1 | 5.21
Cc1ccc(CN2CC34C=CC(O3)C(C(=O)O)C4C2=O)cc1 (stereo not shown) | 2.9
CC1Cc2ccccc2N1C(=O)c1c(Cl)cnn1C (stereo not shown) | 2.67
N#Cc1cnn2c(C(F)(F)F)cc(-c3ccccc3)nc12 | -5.92
C=CCOc1ccc(C(=O)C2=C(O)C(=O)N(Cc3cccnc3)C2c2ccccc2F)cc1C (stereo not shown) | 4.74
CN(C)CCN(Cc1ccccc1)C(=O)c1cc2ccc3cccnc3c2[nH]1 | -5.57
COC(=O)C1=C(N)Oc2c(oc(CO)cc2=O)C1c1cccs1 (stereo not shown) | 0.0719
CC(NC(=O)CCN1N=C(c2ccccc2)CCC1=O)c1ccc2c(c1)OCCO2 (stereo not shown) | -4.53
CCn1cc(CN2N=C(C)CC2c2ccccc2)c(C)n1 (stereo not shown) | -2.05
